The other results are listed elsewhere or left out.

Consider 62 sequences from the supplement of paper PMC3724861.

For the test, the system named is T1, Caupolican (Caup) homeodomain DNA-binding domain.
T1 sequence: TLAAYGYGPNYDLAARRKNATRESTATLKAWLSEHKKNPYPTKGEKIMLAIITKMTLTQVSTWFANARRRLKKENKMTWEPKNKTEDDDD
Description: PBM E-score (8-mer, recovered from the published 9-mer minima) (E-score (dimensionless, -0.5 to 0.5)); Drosophila protein; higher = stronger relative binding preference, active = 0.31 or more. Put shortly: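 An enrichment score, with higher meaning stronger, expresses relative binding preference for each short DNA word. The protein used was Caup's homeodomain DNA-binding domain (residues 214-303), produced by in vitro transcription and translation and tested at 100 nM on custom-designed protein binding microarrays. The 8-mer values were recovered from published 9-mer scores, each equal to the lower of its two constituent 8-mer scores.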
As to AAACCTTA, the “PBM E-score” value was inactive: 0.0279. As for AAACTATA, the figure is inactive: 0.123; as for CATCAAAG, inactive: 0.0355; as for GGCTGCGA, inactive: -0.238.

With AGCTAAAG, the “PBM E-score” value is no less than 0.0657. Under CAGTCCGC stands inactive: -0.134.

Turning to CACCGTGG, the “PBM E-score” value is inactive: -0.0464. Under ATGGACGG stands inactive: -0.0288; under ACTGGGAT, inactive: 0.0195; under CGGCAGGC, inactive: -0.213.

Turning to AGGCAAGG, the “PBM E-score” value was inactive: -0.146. Under ACATATAC stands inactive: 0.291.

For CGATGGAG, the “PBM E-score” value was inactive: -0.139. As for CGTAATTA, the figure is inactive: 0.157. Under CAGATCAC stands inactive: 0.102; under CGTACGAC, inactive: 0.14; under GGAGTCGA, inactive: -0.094. Under GTGATTCA stands inactive: 0.0823; under GGTAGTTA, inactive: 0.08. As for ACGCTGGG, the “PBM E-score” value is inactive: -0.281. As for CGGCGGGC, the “PBM E-score” value is inactive: -0.257. In the case of GGAATATA, the “PBM E-score” value was inactive: 0.0513. With CTACAGAG, the “PBM E-score” value is inactive: 0.084. As for AGTAACAA, the figure is inactive: 0.266; as for CGCCTACA, inactive: 0.0793; as for CGCCTAGC, inactive: -0.251.

For GCACGCAA, the “PBM E-score” value was inactive: -0.112. Turning to ATATTTAC, the “PBM E-score” value is inactive: 0.232. As for GAGTCATA, the figure is inactive: 0.0277; as for GGAACGGA, inactive: -0.154. As for AAAAGTGA, the “PBM E-score” value was inactive: 0.0661. As for ATGGTGGC, the figure is inactive: -0.103; as for CCGAGCTA, inactive: -0.131.

With CACGAGGA, the “PBM E-score” value was inactive: -0.0584.

CATGCAAG: the “PBM E-score” value was inactive: 0.0746. As to TATGTAGA, the “PBM E-score” value was inactive: 0.226.

For AGATGAGC, the “PBM E-score” value was inactive: -0.0506. For the sequence TAGAGACA, the “PBM E-score” value is inactive: 0.0795. As for GGCATTAC, the figure is inactive: 0.041. As for AGCAAATG, the figure is inactive: 0.0599; as for ATCCTGTA, no less than 0.249.

In the case of GAGATCTC, the “PBM E-score” value is inactive: -0.102.

With GGCTTTAA, the “PBM E-score” value was inactive: -0.0745. As for CAATCGGG, the figure is inactive: -0.0717. Under CTGCGTCC stands inactive: -0.206; under CGAATCTC, inactive: 0.0162; under AGCCAAAC, inactive: -0.0421. Turning to ATACTAAA, the “PBM E-score” value is inactive: 0.132. As for ATCGTGAG, the figure is inactive: -0.093; as for CGCGTCAA, inactive: -0.0559. As for GCCATTAA, the figure is inactive: -0.0131; as for CCGAATCA, inactive: -0.0338. As for GCATGCAC, the figure is inactive: 0.0682. With ACAGTCCC, the “PBM E-score” value was inactive: -0.111. Under TAGGGGAA stands no less than -0.0662; under AGAAGGAT, no less than 0.0415. As for CCTTGAAG, the figure is inactive: -0.0924; as for ACCCCATA, inactive: -0.073; as for GACACGAA, inactive: 0.224. As for GGGTCGTA, the figure is inactive: -0.0762; as for CATGGGTC, inactive: 0.00071; as for AGCTCTAG, inactive: -0.0297.
